Test results reported in the RNAGym collection of RNA variant scans (doi:10.1073/pnas.2313332121).
Variants at the background level are over-represented here.

B1: TPR 5TU (parent)
chain: GGAUCUUCUCGAUCUAACAAAAAAGACAAAUCUGCCACAAAGCUUGAGAGCAUCUUCGGAUGCAGAGGCGGCAGCCUUCGGUGGCGCGAUAGCGCCAACGUUCUCAACUAUGACACGCAAAACGCGUGCUCCGUUGAAUGGAGUUUAUCAUG

Variants of: B1
Test: polymerase ribozyme fitness, log enrichment relative to wild type (log ratio); higher = more active; in vitro selection for triplet polymerase activity
How it was run: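 Fitness measures genotype enrichment against wild-type enrichment on a logarithmic scale, with inverse-variance-weighted averaging of replicates. The logarithm is base 2, and genotypes were kept only with ≥10 input reads and ≥1 read per output in Illumina sequencing. The sequenced libraries came from one triplicate in vitro selection round, including frozen incubation at −7 °C, of PCR-built, transcribed mutant libraries of each subunit of a heterodimeric triplet polymerase ribozyme.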

Row | Variant | polymerase ribozyme fitness (log ratio)
1 | A41G G42C C85U C96G | ≤ -4.2
2 | G42U U44A G83C C105G A106C U109G C132G | ≤ -4.2
3 | G42C U90C | ≤ -4.2
4 | C43A U55G C76G G84A C131U | ≤ -4.2
5 | G42A A60G C93U A106G C116U | ≤ -4.2
6 | G42C U56A C72G C76G | ≤ -4.2
7 | A41U G112C A120G U146C | ≤ -4.2
8 | A41G G59A U61A G67A U102A | ≤ -4.2
9 | G42C G70C G88C A91U G141A | ≤ -4.2
10 | C43A A47C U102A C105U A113C C125G C132A | ≤ -4.2
11 | G42C U55A G58A U61A C105U A115G A120G U145C C149A | ≤ -4.2
12 | C43A C96G C108U | ≤ -4.2
13 | G42C G50U A52G G92A | ≤ -4.2
14 | G42A U53A C96U A97C C103A A110U G133C | ≤ -4.2
15 | G42A U56A C95U U111G | -4
16 | G42C A64G G88A G94U C114G | ≤ -4.2
17 | G42C G48C C85A C99G A106G G133U G141C | ≤ -4.2
18 | G42A U111C | ≤ -4.2
19 | C43A C54G U56G G58A | ≤ -4.2
20 | C43A U61G G62A G84A C85U | ≤ -4.2
21 | C43A U77C C87A G88U A106U | ≤ -4.2
22 | A41G G59U U82G C85U A91U U111G | ≤ -4.2
23 | G42U C93G C96A | ≤ -4.2
24 | G42C G80A C93G | ≤ -4.2

Row | Variant | polymerase ribozyme fitness (log ratio)
25 | G42C C93A | ≤ -4.2
26 | G42C C93U | ≤ -4.2
27 | A41G C69A G74C C93U A113C | ≤ -4.2
28 | A41U C96G U104A C114U A121U G124C G133U | ≤ -4.2
29 | G42A G86A U101G C116G | ≤ -4.2
30 | G42C G92A | ≤ -4.2
31 | G42A A49U C57A C96U A142G | ≤ -4.2
32 | G42A G48U G58U C75G G83A U104G | ≤ -4.2
33 | A41U C87U C93U C99G | ≤ -4.2
34 | G42C A115U | ≤ -4.2
35 | C43A C85U A91C C95U G140C | ≤ -4.2
36 | G42A A97G U101G C103G A110G G140U | ≤ -4.2
37 | C43A U144G | ≤ -4.2
38 | G42A U55A G83A G94C G100U | ≤ -4.2
39 | A41U G42U G70C C87A A91G C96G A98G A142C | ≤ -4.2
40 | A41U G136A | 0.0389
41 | A41U G86U C125U U127G | -4.16
42 | G42U C72U A73U G94A | ≤ -4.2
43 | G42U G62A U102G C123A A137U G140C | ≤ -4.2
44 | C43A G86A U102A U104C C116U | ≤ -4.2
45 | G42U C51A U56A C79G | ≤ -4.2
46 | A41U A73U C85U G117A G126C | ≤ -4.2
47 | G42U A52C A73U G83A | ≤ -4.2
48 | C43A A52C C85U G124A | ≤ -4.2

Row | Variant | polymerase ribozyme fitness (log ratio)
49 | G42A C87U G100U A110C A115C A120G U134A | ≤ -4.2
50 | G42C G48U U90C C93G C96A | ≤ -4.2
51 | G42C C85G C99U | ≤ -4.2
52 | A41U C54A G80U G88C | ≤ -4.2
53 | G42C C87U C95U A120U | ≤ -4.2
54 | G42A G50A C57U G67C C79U G83U C93U | ≤ -4.2
55 | G42C A52G C57U G83C A113U G126A | ≤ -4.2
56 | G42A C96A A122G A138G U145G | ≤ -4.2
57 | G42C C54U G59U A60C U61A A91C C95A | ≤ -4.2
58 | G42C A73U C85U G152U | ≤ -4.2
59 | A41G U78G G88U A119G | ≤ -4.2
60 | A41U A47U C93G | -4.14
61 | A41G G59U G68C | ≤ -4.2
62 | G42U C79G C93U | ≤ -4.2
63 | A41G G42C G65A G92U A119C C129U | ≤ -4.2
64 | G42A G67U C99U C114U C118U G126U G143C | ≤ -4.2
65 | A41U C54U G67A A97G U109G | ≤ -4.2
66 | A41U U139C U148G | ≤ -4.2
67 | G42A G86U G141A | ≤ -4.2
68 | G42C C75A C132G | ≤ -4.2
69 | A41U U144G | 0.164
70 | G42C U53A G83C G126U | ≤ -4.2
71 | C43A C85A | ≤ -4.2
72 | A41U C57U C85U | -1.12

Row | Variant | polymerase ribozyme fitness (log ratio)
73 | G42C G86C C116U G141A | ≤ -4.2
74 | G42U A47C U135A | ≤ -4.2
75 | A41U U44A G65C C85G G143U | ≤ -4.2
76 | G42A C87U A142U | ≤ -4.2
77 | G42C U90G G136U U146A | ≤ -4.2
78 | C43A G58C G81C C95U C96A A122U G126C A142C | ≤ -4.2
79 | C43A A52U U56A G83C C93A G143C G152U | ≤ -4.2
80 | A41G G42C U82G C87G C118A | ≤ -4.2
81 | A41U C79U C96U C123A G152U | ≤ -4.2
82 | G42A A52C U55G U56A G84C C87A C105G C123G A150G | ≤ -4.2
83 | A41U G80U U101C | -4.09
84 | A41U G68C C76U A91C G140C | ≤ -4.2
85 | G42A G48A A97G A138U | ≤ -4.2
86 | G42C G62A C76U C87A A89G | ≤ -4.2
87 | A41U C85U C99A C105A C118G A119C | ≤ -4.2
88 | C43A U44A U55G C93G C114A C132U | ≤ -4.2
89 | A41G C76A G80U C96U C118U G124A | ≤ -4.2
90 | C43A G62C G84C A89G C118G C149A | ≤ -4.2
91 | G42A G94U C118U G141A A150U | ≤ -4.2
92 | A41U C76U C95A U104G | ≤ -4.2
93 | G42C U55G G68C A106U | ≤ -4.2
94 | G42C C43A G84A | ≤ -4.2
95 | G42C G48A U55A C93U | ≤ -4.2
96 | G42A A150C | ≤ -4.2

Row | Variant | polymerase ribozyme fitness (log ratio)
97 | G42A A150G | ≤ -4.2
98 | G42U A47C C93U A97G C118U | ≤ -4.2
99 | A41U G88A | ≤ -4.2
100 | G42U U55G G80A U90C A97U G143C | ≤ -4.2
101 | G42U G74C C96U A121G | ≤ -4.2
102 | A41G U44G A60G G67C C93U C105G A106U | ≤ -4.2
103 | G42C U55G U61G C72U A73G G88U | ≤ -4.2
104 | C43A C87A C105U A115G | ≤ -4.2
105 | C43A G59U G68U G92U U134A | ≤ -4.2
106 | A41U C57A G62A G71A G84A G117A C132A G141A | ≤ -4.2
107 | G42C C63U G100U | ≤ -4.2
108 | A41U C54U U77A G94U | ≤ -4.2
109 | A41U U90G | ≤ -4.2
110 | G42A A47C U55A C85U | ≤ -4.2
111 | A41U U145A | -0.141
112 | G42U G48C G71A U77C A97C | ≤ -4.2
113 | G42U C54U A66G C85U A91G C96A A107G | ≤ -4.2
114 | G42A A47C U77G G92U | ≤ -4.2
115 | A41U G50A A52C C93U G100A A119C | ≤ -4.2
116 | G42U G50A C118U A122C | ≤ -4.2
117 | A41U C72G C85U A110G C123A U139A A142U G143C G152U | ≤ -4.2
118 | A41G C75U C93G | -2.6
119 | G42C A107C A120C U134A A150C | ≤ -4.2
120 | A41U C114A | -4.16

Row | Variant | polymerase ribozyme fitness (log ratio)
121 | G42A A142C | -4.17
122 | G42C C87A G140C | ≤ -4.2
123 | G42U U78G | ≤ -4.2
124 | A41G C69A U77G A115U | ≤ -4.2
125 | A41U G50C U55G C76U A106G A142G | ≤ -4.2
126 | A41G C85A U130G G143U A147G | ≤ -4.2
127 | G42C U53A C57U C95U G133U | ≤ -4.2
128 | G42C G92U A137U | ≤ -4.2
129 | A41U G42A U44A U53C G62A G67A G86U C95U C116U A120G | ≤ -4.2
130 | G42C C149U | ≤ -4.2
131 | A41G G81C U82C | -0.145
132 | G42C G58C A73G C85U C95A A122U | ≤ -4.2
133 | G42C U53A C79A G80C C95A | ≤ -4.2
134 | G42A U56A G84A U127A | ≤ -4.2
135 | A41U A52U G81U C87U C105G | ≤ -4.2
136 | G42A C75U C76G U111G U130A G133U | ≤ -4.2
137 | G42A G48C U145G | ≤ -4.2
138 | A41U U44A A47C C95U C116A | ≤ -4.2
139 | G42C A91U U111A G128U | ≤ -4.2
140 | G42U C75U U77G U78G C85U C93U C116U G140C | ≤ -4.2
141 | A41U C85G G126A | -2.76
142 | A41U C51A C114A G136A U144G | ≤ -4.2
143 | A41U C69U C87U | -2.75
144 | G42A G50A U90G C116U | ≤ -4.2

Row | Variant | polymerase ribozyme fitness (log ratio)
145 | G42C U82G C85U C99A A147C | ≤ -4.2
146 | G42A C57A C76U C79A C85A | ≤ -4.2
147 | A41U C85G G126A U148C | ≤ -4.2
148 | C43A U61A C85U A106C G126U U148G | ≤ -4.2
149 | G42A U56G G59U G71C A107C U134G | ≤ -4.2
150 | A41U C54U C85U U90G A107U G133U U135G | ≤ -4.2
151 | G42C G48C A106U U145G | ≤ -4.2
152 | G42C G68A C93G U144A U151A | ≤ -4.2
153 | G42U G50A G74U C95U | ≤ -4.2
154 | A41U G71A G83C G84U U145C A147U | ≤ -4.2
155 | G42U C87A C118G | ≤ -4.2
156 | A41U G67C G136U | ≤ -4.2
157 | G42C G46A G50C G83C G94U U139G G140A G141C U144A | ≤ -4.2
158 | G42U C72U G80C G84C C108U | ≤ -4.2
159 | A41G U45A C54G G92U | -2.74
160 | A41U A47U C95U U102C C114U U148A A150C | ≤ -4.2
161 | G42C U61A G88A C95U U104G | ≤ -4.2
162 | G42A G100A U134G | ≤ -4.2
163 | G42A C85G G88A G94C C132G A150C | ≤ -4.2
164 | C43A C95U C118U U130G | ≤ -4.2
165 | G42U G80A U104C | ≤ -4.2
166 | G42A G86U | ≤ -4.2
167 | G42U C51A A52C C63A G74C C76A C79G C87G C93U A113C | ≤ -4.2
